The other results are listed elsewhere or left out. Further columns of the screen follow, without active or inactive calls.

This passage reports percent labeling results from PubChem BioAssay AID2202238 (Ras Initiative Chemistry Research Team, Frederick National …, 2025).

This test concerns the target GTPase KRas (Homo sapiens) (UniProt P01116). The experiment in a line: Covalent labelling of cysteine mutants by fragments, read by mass spectrometry (AID 2202238). Particulars: KRAS G12D cysteine mutants, disulfide tethering, MALDI-TOF labeling, stronger effect = higher value, fragment at 500 µM. Details: protein at 5 µM with 500 µM competing thiol for 1.5 h.
[1] abbreviates: measured here: G60C mutant labeling.
Where [2] appears, read: measured here: G75C mutant labeling.
Setting [3] is: measured here: H94C mutant labeling.
The mark [4] stands for this setting: measured here: I36C mutant labeling.
[5] abbreviates: measured here: L120C mutant labeling.
[6] abbreviates: measured here: M67C mutant labeling.
The mark [7] stands for this setting: measured here: M72C mutant labeling.
[8] abbreviates: measured here: N26C mutant labeling.
Setting [9] is: measured here: N86C mutant labeling.
The mark [10] stands for this setting: measured here: P121C mutant labeling.
Setting [11] is: measured here: S122C mutant labeling.
The mark [12] stands for this setting: measured here: S136C mutant labeling.

Sequence of UniProt P01116 (P01116 whole entry, looked up, the tested form may be a part): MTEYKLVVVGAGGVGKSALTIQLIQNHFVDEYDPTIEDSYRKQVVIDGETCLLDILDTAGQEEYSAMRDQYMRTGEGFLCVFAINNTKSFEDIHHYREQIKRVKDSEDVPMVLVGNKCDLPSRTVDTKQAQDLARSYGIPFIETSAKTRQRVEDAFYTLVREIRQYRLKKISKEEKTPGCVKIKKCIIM

For `Cc1csc(-c2ccc(C(=O)NCCS)cc2)n1`, the percent labeling is 21.2% under setting [1]; 13.2% under setting [2]; 15.7% under setting [3]; 11.7% under setting [4]; 21.1% under setting [5]; 13.2% under setting [6]. The percent labeling was 61.6% under setting [7]; 29.3% under setting [8]; 14.9% under setting [9]; 15.9% under setting [10]; 11% under setting [11]; 20.8% under setting [12].

As for `O=C(CCS)Nc1cccc(CN2C(=O)CNC2=O)c1`, the percent labeling is, setting by setting: under setting [2], 17%; under setting [3], 43%; under setting [4], 42.5%; under setting [5], 38.5%; under setting [6], 34.3%; under setting [7], 42.7%. Moreover, the percent labeling by setting is: under setting [9], 54.2%; under setting [10], 33%; under setting [11], 36.6%; under setting [12], 53.9%.

For the molecule `NC(=O)Cc1cc(Br)c(-c2ccc(NC(=O)CCS)cc2)s1`, the percent labeling is, setting by setting: under setting [2], 23%; under setting [3], 11.2%; under setting [4], 21.9%; under setting [5], 6.5%; under setting [6], 5.6%; under setting [7], 75.2%. The percent labeling runs as follows: under setting [9], 15.2%; under setting [10], 7.1%; under setting [11], 5.5%; under setting [12], 17.9%.

With `CC(C)C(NC(=O)Cc1ccccc1)C(=O)NCCS` (configuration not stated), the percent labeling by setting is: under setting [1], 40.6%; under setting [2], 10.6%; under setting [3], 31.9%; under setting [4], 25.5%; under setting [5], 39.5%; under setting [6], 30.6%. Also, the percent labeling runs as follows: under setting [7], 20.3%; under setting [8], 34.3%; under setting [9], 20.3%; under setting [10], 32.8%; under setting [11], 31.3%; under setting [12], 44.7%.

As to `O=C(Nc1sc2c(c1C(=O)NCCS)CCC2)c1ccco1`, the percent labeling is 10.3% under setting [1]; 5.1% under setting [2]; 10.2% under setting [3]; 0% under setting [4]; 3.9% under setting [5]; 5.1% under setting [6]. The percent labeling reads like this: under setting [7], 6.8%; under setting [8], 7.2%; under setting [9], 5%; under setting [10], 3.8%; under setting [11], 0%; under setting [12], 3.9%.

On to `O=C(CCS)NCC1(O)CCC2(CC1)OCCO2`, for which the percent labeling stood at 0% under setting [2]; 7.4% under setting [3]; 5.2% under setting [4]; 10.1% under setting [5]; 7.3% under setting [6]; 3% under setting [7]. In addition, the percent labeling reads like this: under setting [9], 2.6%; under setting [10], 10.3%; under setting [11], 12.4%; under setting [12], 13.3%.

For `O=C(CCS)N1CCn2c(nc3c2CCCC3)C1`, the percent labeling reads like this: under setting [2], 17.9%; under setting [3], 25%; under setting [4], 42.5%; under setting [5], 31%; under setting [6], 37.3%; under setting [7], 25.7%. Also, the percent labeling amounted to 15.1% under setting [9], 30.4% under setting [10], 34% under setting [11] and 63% under setting [12].

Turning to `O=C(NCCS)c1cc(-n2cccc2)ccc1Cl`, the percent labeling was 25.2% under setting [1]; 4.1% under setting [2]; 12.6% under setting [3]; 8.7% under setting [4]; 15% under setting [5]; 10.4% under setting [6]. For the same molecule, the percent labeling runs as follows: under setting [7], 7.9%; under setting [8], 22.8%; under setting [9], 5.1%; under setting [10], 20.5%; under setting [11], 11.3%; under setting [12], 3%.

For `O=C(CCS)Nc1ncc(Cc2cccc(Cl)c2)s1`, the percent labeling runs as follows: under setting [2], 17.4%; under setting [3], 8.6%; under setting [4], 17.9%; under setting [5], 15.8%; under setting [6], 23.1%; under setting [7], 24.4%. In addition, the percent labeling reads like this: under setting [9], 12.1%; under setting [10], 15.6%; under setting [11], 8.9%; under setting [12], 20.2%.

Regarding `CCc1nn(C)c(CC)c1CC(=O)NCCS`, the percent labeling by setting is: under setting [1], 33.1%; under setting [2], 12.3%; under setting [3], 30%; under setting [4], 20%; under setting [5], 30%; under setting [6], 30.8%. Besides, the percent labeling is, setting by setting: under setting [7], 15.8%; under setting [8], 33%; under setting [9], 21.1%; under setting [10], 28.2%; under setting [11], 28.7%; under setting [12], 38.8%.

Turning to `O=C(CCn1c(=O)oc2ccccc21)NCCS`, the percent labeling under setting [1] is 32.4%; the percent labeling under setting [2] was determined as 11%; the percent labeling under setting [3] is 32.7%; the percent labeling under setting [4] was 28.3%; the percent labeling under setting [5] was 33.9%; the percent labeling under setting [6] worked out at 38%. Moreover, the percent labeling reads like this: under setting [7], 22.4%; under setting [8], 31.9%; under setting [9], 22.5%; under setting [10], 37.6%; under setting [11], 27.8%; under setting [12], 41.2%.

On to `Cn1cc(-c2cncc(C(=O)NCCS)c2)cn1`, for which the percent labeling was determined as 25.4% under setting [1]; 17.6% under setting [2]; 25% under setting [3]; 22.2% under setting [4]; 28.3% under setting [5]; 28% under setting [6]. The percent labeling reads like this: under setting [7], 45.6%; under setting [8], 56.5%; under setting [9], 10.6%; under setting [10], 21.5%; under setting [11], 24.9%; under setting [12], 41.9%.

`O=C(CCS)N1CCCC(c2ccn[nH]2)C1` (configuration not stated) displayed a percent labeling under setting [2] of 17.4%; a percent labeling under setting [3] of 36.9%; a percent labeling under setting [4] of 41.5%; a percent labeling under setting [5] of 29.3%; a percent labeling under setting [6] of 38.2%; a percent labeling under setting [7] of 29%. Also, the percent labeling under setting [9] was found to be 23.3%, the percent labeling under setting [10] is 36.1%, the percent labeling under setting [11] was determined as 36.7% and the percent labeling under setting [12] amounted to 58.9%.

With `O=C(NCCS)C1(C(F)(F)F)CCN(c2ccccn2)C1` (configuration not stated), the percent labeling stood at 40.5% under setting [1]; 17.6% under setting [2]; 25.9% under setting [3]; 22.2% under setting [4]; 25.4% under setting [5]; 31.3% under setting [6]. In addition, the percent labeling was determined as 16.4% under setting [7]; 32.6% under setting [8]; 24.2% under setting [9]; 21.4% under setting [10]; 17.3% under setting [11]; 41.7% under setting [12].

For the molecule `Cc1ccc(-c2cc(NC(=O)CCS)n[nH]2)cc1`, the percent labeling runs as follows: under setting [2], 17.6%; under setting [3], 15%; under setting [4], 28.9%; under setting [5], 20.3%; under setting [6], 9.2%; under setting [7], 62.2%. This molecule also yielded a percent labeling under setting [9] of 26.7%, a percent labeling under setting [10] of 23.5%, a percent labeling under setting [11] of 12.1% and a percent labeling under setting [12] of 32.4%.

For the molecule `O=C(CCS)Nc1ccccc1N1CCC(CO)CC1`, the percent labeling by setting is: under setting [2], 23.7%; under setting [3], 61.5%; under setting [4], 36.7%; under setting [5], 20.9%; under setting [6], 35.2%; under setting [7], 47.8%. The percent labeling under setting [9] amounted to 27.6%, the percent labeling under setting [10] stood at 27.6%, the percent labeling under setting [11] amounted to 26.6% and the percent labeling under setting [12] turned out to be 49.9%.

Consider `Cc1ncsc1C(=O)NCCNC(=O)CCS`, for which the percent labeling by setting is: under setting [2], 8%; under setting [3], 33.1%; under setting [4], 38.9%; under setting [5], 25.5%; under setting [6], 33.5%; under setting [7], 12.5%. For the same molecule, the percent labeling reads like this: under setting [9], 19.2%; under setting [10], 32.4%; under setting [11], 33%; under setting [12], 44.7%.

For `Cc1cc(Br)cc2cc(C(C(C)C)N(C)C(=O)CCS)oc12` (configuration not stated), the percent labeling is, setting by setting: under setting [2], 24.2%; under setting [3], 52.7%; under setting [4], 29.1%; under setting [5], 26.5%; under setting [6], 32.2%; under setting [7], 28.8%. Moreover, the percent labeling runs as follows: under setting [9], 20.2%; under setting [10], 30.8%; under setting [11], 11.5%; under setting [12], 50%.

Turning to `Cn1ccnc1Cn1cccc(NC(=O)CCS)c1=O`, the percent labeling reads like this: under setting [2], 11.5%; under setting [3], 28.1%; under setting [4], 35%; under setting [5], 35.8%; under setting [6], 34.9%; under setting [7], 23.6%. For the same molecule, the percent labeling came out at 32.7% under setting [9], 28.9% under setting [10], 29.8% under setting [11] and 49.4% under setting [12].

For `Cc1cc(C)n(-c2ccc(C(=O)NCCS)cc2F)n1`, the percent labeling is, setting by setting: under setting [1], 48.1%; under setting [2], 14.8%; under setting [3], 26.5%; under setting [4], 22%; under setting [5], 29.4%; under setting [6], 21.4%. The percent labeling under setting [7] came to 48.4%; the percent labeling under setting [8] was 34%; the percent labeling under setting [9] is 22.4%; the percent labeling under setting [10] amounted to 24.8%; the percent labeling under setting [11] turned out to be 21.2%; the percent labeling under setting [12] turned out to be 43.6%.

As to `O=C(NCCS)c1cnn2cccc(Br)c12`, the percent labeling reads like this: under setting [1], 41.3%; under setting [2], 21.1%; under setting [3], 34.3%; under setting [4], 24.2%; under setting [5], 32.1%; under setting [6], 37.3%. The percent labeling by setting is: under setting [7], 61.5%; under setting [8], 44.6%; under setting [9], 28.2%; under setting [10], 32.7%; under setting [11], 28.5%; under setting [12], 50.2%.

With `O=C(NCCS)c1ccc2c(ccn2Cc2ccccc2)c1`, the percent labeling is, setting by setting: under setting [1], 21.2%; under setting [2], 11.3%; under setting [3], 15.4%; under setting [4], 11.4%; under setting [5], 15.3%; under setting [6], 15.9%. Also, the percent labeling runs as follows: under setting [7], 41.3%; under setting [8], 20.3%; under setting [9], 14.3%; under setting [10], 16.3%; under setting [11], 7.2%; under setting [12], 12.9%.

As for `O=C(CCS)N1CCC(O)(c2cccc3cnccc23)CC1`, the percent labeling is, setting by setting: under setting [2], 20.8%; under setting [3], 32.6%; under setting [4], 41.6%; under setting [5], 29.9%; under setting [6], 55.2%; under setting [7], 44.5%. For the same molecule, the percent labeling is, setting by setting: under setting [9], 33.7%; under setting [10], 29.4%; under setting [11], 24.1%; under setting [12], 55.9%.

In the case of `O=C(CCS)N1CCN(c2cc(F)cc(F)c2)CC1`, the percent labeling is, setting by setting: under setting [2], 16.1%; under setting [3], 26.7%; under setting [4], 22.5%; under setting [5], 22.5%; under setting [6], 24.1%; under setting [7], 39%. In addition, the percent labeling reads like this: under setting [9], 19.9%; under setting [10], 25.1%; under setting [11], 22.3%; under setting [12], 44.5%.
